Experimental data taken from PubChem BioAssay AID686979 (National Center for Advancing Translational Sciences (NCATS), 2013).
In all, about 420,000 compounds went through this assay and about 50,000 (12%) were called active. Inconclusive means that the source gave no clear call. Such entries were picked first, then a sample of the others. Calls follow the shape of the dose curve; as a rule, active = well fitted inhibition curve with a large enough effect; inconclusive = small, poorly fitted or top-dose-only effect; inactive = flat fitted curve, though single readings scatter. Potencies of inconclusive entries are left out as doubtful fits.
% is scaled to controls: 0 for no effect and ±100 for the full control effect; potency is read from the fitted curve at half-maximal effect; tags tell the direction and shape of the fitted curve.

Assay: qHTS for Inhibitors of human tyrosyl-DNA phosphodiesterase 1 (TDP1): qHTS in cells in presence of CPT; also: nearly all actives have a fitted effect of over 55% in size
Settings: chicken DT40 Tdp1-/-;hTDP1 cells + 20 nM CPT, ATP luminescence, 48 h; activity change, negative = growth inhibition: at 46.2 µM (top of the series) unless noted
In short: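 Chicken DT40 Tdp1-/- cells stably complemented with human TDP1 were seeded at 400 cells/well in medium containing 20 nM camptothecin, exposed to pin-transferred compounds, and grown at 37 °C for at least 48 hr. Viability was read as ATP luminescence.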
With CCCCNC(=S)N/N=C1\CCCCc2ccccc21 the Potency was active: 23.1 µM. In the case of Cc1nnc2ccc(-c3cccc(NC(=O)Cc4cccs4)c3)nn12, the Potency is reported as inconclusive [inhibitor, single point]. In the case of CC1CCN(CCOc2ccc(OCc3ccccc3)cc2)CC1, the Potency is reported as inconclusive [inhibitor, single point]. For CCc1[nH]nc(C(=O)N2CCCC(C(=O)c3cccc(OC(C)C)c3)C2)c1C (stereo not drawn), the Potency was inconclusive [inhibitor, single point]. With Cc1ccc2nc(N(CCCN(C)C)C(=O)c3sc4ccccc4c3Cl)sc2c1 the Potency was active: 16.4 µM. With CC(C)N(C)c1ncnc2c1ncn2[C@H]1CN(Cc2ccc(F)cc2)C[C@@H](CO)O1 the Potency was inconclusive [inhibitor, single point]. With COc1cc(C(O)c2nc(-c3csc4ccccc34)cs2)ccc1F (stereo not drawn) the Potency was inconclusive [inhibitor, single point]. For COc1ccc(Cn2ccnc2SCC(=O)Nc2ccc(C)cc2C)cc1, the “activity change, negative = growth inhibition” value was inactive: -15.3%. With C=CCN1CC2(c3ccccc3)CN(CC=C)CC(c3ccccc3)(C1)C2=O the Potency was inconclusive [inhibitor, single point]. With CC(C)(C)CC(=O)Nc1nnc2n1CCS2 the “activity change, negative = growth inhibition” value was inactive: -21.7%. In the case of COCCn1c(NC(=S)NC(=O)C23CC4CC(CC(C4)C2)C3)cc(=O)[nH]c1=O, the Potency is reported as inconclusive [inhibitor, single point]. In the case of Cc1ccc2[nH]c3c(c2c1)CCC3=O, the “activity change, negative = growth inhibition” value is reported as inactive: -4.41%. In the case of C[C@@H]1CN([C@@H](C)CO)C(=O)c2c(c3ccccc3n2C)-c2ccccc2CO[C@H]1CN(C)C(=O)[C@H](Cc1ccccc1)N(C)C, the Potency is reported as inconclusive [inhibitor, single point]. For O=C(CN1C(=O)COc2ccccc21)NCC1CCCO1 (stereo not drawn), the “activity change, negative = growth inhibition” value was inactive: -1.14%. With CSc1ncccc1C(=O)OCC(=O)Nc1ccc(S(=O)(=O)N2CCCC2)cc1 the activity change, negative = growth inhibition was inconclusive: -30.3% [inhibitor]. In the case of COc1ccccc1N1CCN(C(=O)/C=C/c2ccccc2)CC1, the Potency is reported as inconclusive [inhibitor, single point]. For COc1cc(S(=O)(=O)Nc2ccc(Br)cc2)ccc1N, the “activity change, negative = growth inhibition” value was inactive: -24.9%. In the case of Cc1ccc(CNC(=O)CN(c2ccc(C(C)C)cc2)S(=O)(=O)c2c(C)n[nH]c2C)cc1, the Potency is reported as inconclusive [inhibitor, single point]. In the case of CCN1CC2=C(OC(N)=C(C#N)C2c2ccccc2)/C(=C\c2ccccc2)C1 (stereo not drawn), the Potency is reported as inconclusive [inhibitor, single point]. In the case of O=C(CN(c1ccc(F)cc1)S(=O)(=O)c1ccc2c(c1)OCCO2)Nc1ccccc1, the “activity change, negative = growth inhibition” value is reported as inactive: -17.3%. With COC(=O)C1=C(Nc2ccc(C)cc2)C=C(C)C(C(=O)OC)C1c1ccc(F)cc1 (stereo not drawn) the Potency was inconclusive [inhibitor, single point]. For COc1ncc2nc(-c3ccc(F)cc3)c(=O)n(CCc3ccccc3)c2n1, the “activity change, negative = growth inhibition” value was inactive: 4.89%. For CSc1ccc(CN2CCC(n3nccc3NC(=O)c3ccccc3C)CC2)cc1, the Potency was inconclusive [inhibitor, partial curve, poor fit]. With CC(CN1CCCCC1)NC(=O)c1cccs1 (stereo not drawn) the “activity change, negative = growth inhibition” value was inactive: 0.377%. For CC(NC1c2ccccc2-c2ccccc21)c1ccccc1 (stereo not drawn), the Potency was inconclusive [inhibitor, single point]. With COc1ccccc1CNC(=O)CN1C(=O)CSc2c1c(C)nn2-c1ccccc1 the Potency was inconclusive [inhibitor, single point]. For CCOC(=O)C[C@H]1c2cc(C(F)(F)F)ccc2S(=O)(=O)N1C(C)C, the Potency was “inactive”. With COc1cc(CN(C)CC2CCCN(CCc3ccccc3F)C2)cc(Cl)c1OC (stereo not drawn) the Potency was inconclusive [inhibitor, single point]. For O=C(O)CSc1c(-c2ccccc2)[nH]c2ccccc12, the “activity change, negative = growth inhibition” value was inactive: -4.89%. With CCOC(=O)C1(Cc2ccccc2)C(=O)N(CCCN(C)C)c2ccccc21 (stereo not drawn) the “activity change, negative = growth inhibition” value was inactive: -11.2%. For O=S1(=O)C=C(SCc2cccc(Cl)c2)Nc2ccccc21, the Potency was inconclusive [inhibitor, partial curve]. For CN(c1ccccc1)S(=O)(=O)c1cccc(C(=O)NCC(c2cccs2)N2CCOCC2)c1 (stereo not drawn), the Potency was inconclusive [inhibitor, partial curve, poor fit]. For COc1ccc(N2CCN(C(=O)Oc3ccc([N+](=O)[O-])cc3)CC2)cc1, the Potency was inconclusive [inhibitor, single point]. In the case of COc1ccc(-c2cccc3c2NC(=O)C3=O)cc1OC, the Potency is reported as active: 18.4 µM. With COc1cc(OC)cc(-c2sc3ccc(OC)cc3c2-c2ccc(OCCN3CCCCC3)cc2)c1 the Potency was inconclusive [inhibitor, single point]. For CC(=O)Nc1ccc(Nc2c([N+](=O)[O-])cc(S(C)(=O)=O)cc2[N+](=O)[O-])cc1, the Potency was inconclusive [inhibitor, partial curve]. In the case of CC(C(=O)NCc1ccc(F)cc1)n1ccc2cc(S(=O)(=O)N3CCCC3)ccc21 (stereo not drawn), the Potency is reported as inconclusive [inhibitor, single point]. In the case of COc1ccc(S(=O)(=O)Cc2ccc(C(=O)N3CCN(c4ncccn4)CC3)o2)cc1, the Potency is reported as inconclusive [inhibitor, partial curve, poor fit]. For CCOC(=O)C1=CCN(S(=O)(=O)c2ccc(C)cc2)C1c1ccc(Br)cc1 (stereo not drawn), the Potency was inconclusive [inhibitor, single point]. For COc1cccc(-c2cnc(C(O)c3cccc(CN4CCCCC4)c3)[nH]2)c1 (stereo not drawn), the Potency was inconclusive [inhibitor, single point]. For O=C(/C=C/c1ccco1)Nc1cccc(C(=O)Nc2ccccc2C(=O)O)c1, the “activity change, negative = growth inhibition” value was inactive: -1.9%. For CC(C)c1ccc(CN2CCC2(C)C(=O)Nc2cnc3ccccc3c2)cc1 (stereo not drawn), the Potency was active: 18.4 µM. For c1ccc(-c2nccc(-c3ccco3)n2)nc1, the Potency was inconclusive [inhibitor, single point]. For CCCC(=O)Nc1cc2c3c(c1)CC(=O)N3CCC2, the “activity change, negative = growth inhibition” value was inactive: -3%. In the case of Cc1ccc(CCNC(=O)c2cc(-c3ccncc3)nc3ccccc23)cc1, the Potency is reported as inconclusive [inhibitor, single point]. In the case of O=C(NCCc1ccccc1)c1ccccc1NC(=O)C1CC=CCC1C(=O)O (stereo not drawn), the Potency is reported as active: 14.6 µM. With CCOC(=O)C1=C(C)N(c2ccc(C)cc2)C(=O)/C1=C\c1cccs1 the Potency was inconclusive [inhibitor, partial curve]. For Cc1cc(C)c(CN2CCC(n3nccc3NC(=O)CCOc3ccccc3)CC2)cc1C, the Potency was inconclusive [inhibitor, single point]. For O=C(CSc1nnc(-c2ccccc2)o1)NC1CC1, the “activity change, negative = growth inhibition” value was inactive: 18.7%. For COc1ccc(S(=O)(=O)NCCc2nnc3ccc(SCC(=O)Nc4ccc(C(F)(F)F)cc4)nn23)cc1, the Potency was inconclusive [inhibitor, partial curve]. In the case of CCc1ccc(NC(=O)c2cc(-c3ccc4c(c3)OCO4)on2)cc1, the “activity change, negative = growth inhibition” value is reported as inactive: -21.1%. In the case of O=C(NCCO)C1CCN(S(=O)(=O)c2ccc(F)cc2)CC1, the “activity change, negative = growth inhibition” value is reported as inactive: 3.07%. In the case of COCCCN1C(=O)C(CC(=O)NC(c2ccccc2)c2ccccc2)CC(C(=O)N(C(C)C)C(C)C)=C1C (stereo not drawn), the Potency is reported as inconclusive [inhibitor, single point]. In the case of COc1cc2c(cc1OC)C(COc1ccccc1OC)N(C(=O)c1ccco1)CC2 (stereo not drawn), the “activity change, negative = growth inhibition” value is reported as inactive: 1.1%. With COc1ccc(NC(=O)c2sc3nc(N4CCCC4)c4c(c3c2N)CC(C)(C)OC4)c(OC)c1 the Potency was inconclusive [inhibitor, single point]. For CC(CCC(C)C(C)(C)C)[C@@H]1CC[C@H]2C3C[C@H](OS(O)(=S)=S)[C@H]4C[C@H](OS(O)(=S)=S)[C@@H](OS(O)(=S)=S)C[C@]4(C)[C@H]3CC[C@]12C (stereo partly drawn) (tested in a mixture with another compound), the Potency was inconclusive [inhibitor, single point]. In the case of Cc1ccccc1Cn1nc(C)c(NC(=O)c2cc(-c3ccc(F)cc3)on2)c1C, the Potency is reported as inconclusive [inhibitor, partial curve]. In the case of CC(C)(C)NC(=O)NCCc1ccccc1, the “activity change, negative = growth inhibition” value is reported as inactive: 1.8%. For CCNC(=O)Cn1c(=O)c2c(ncn2Cc2ccccc2)n(Cc2ccccc2)c1=O, the Potency was inconclusive [inhibitor, single point]. In the case of CSc1ccc(CCNC(=O)CCc2c(C)nc3c(-c4ccccc4)c(C)nn3c2C)cc1, the Potency is reported as inconclusive [inhibitor, single point]. With COc1cc2nc(CN3CCN(S(=O)(=O)c4ccc(Br)cc4)CC3)[nH]c(=O)c2cc1OC the Potency was inconclusive [inhibitor, single point]. In the case of COc1ccc(-n2ncc3c2CC(C)(C)CC3NC(=O)CCN2CCCC2=O)cc1 (stereo not drawn), the Potency is reported as inconclusive [inhibitor, partial curve]. With Cn1nc(C(C)(C)C)cc1C(=O)N1CCCC(c2cc(C(=O)Nc3ccccc3Cl)no2)C1 (stereo not drawn) the Potency was inconclusive [inhibitor, single point]. In the case of CC(C)n1c(=O)c2ccccc2n1S(C)(=O)=O, the “activity change, negative = growth inhibition” value is reported as inactive: -1.11%. For CCc1ccc(CSc2nc(-c3ccccc3OC)nc3c2Cc2c(CO)cnc(C)c2O3)cc1, the Potency was inconclusive [inhibitor, single point]. For O=C(C1CCCN(S(=O)(=O)c2cccc3nonc23)C1)N1CCN(c2cccc(Cl)c2)CC1 (stereo not drawn), the Potency was active: 16.4 µM. With CCCn1c(=N)c(C(=O)NCc2cccnc2)cc2c(=O)n3cc(C)ccc3nc21 the “activity change, negative = growth inhibition” value was inactive: -0.804%. In the case of COC(=O)[C@]12CCCCC=C1N(Cc1ccc3c(c1)OCO3)C(=O)[C@H](CC(=O)N1CCSCC1)C2, the Potency is reported as inconclusive [inhibitor, single point].
